Some test systems named below: MZ2-MEL; MeWo; RPMI7951; RVH-421; SkMel28; SkMel2; SkMel30; SkMel5; UACC257; UACC62.
Common to all, as to assay: cell count relative to DMSO control; melanoma cells; higher = more viable cells
Conditions in all cases: library dose: low library concentration; 72 h

Molecules are shown by their SMILES. Some of the results follow. Many values rest on one well or one pass, so single values are uncertain.
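Further: cell number obtained by counting DAPI-stained nuclei in high-throughput microscope images with image analysis software, screen run in 1,536-well plates.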

On to `COc1cc([C@@H]2c3cc4c(cc3[C@@H](O[C@@H]3O[C@@H]5CO[C@@H](C)O[C@H]5[C@H](O)[C@H]3O)[C@H]3COC(=O)[C@H]23)OCO4)cc(OC)c1O` [etoposide] + CC(C)(C)c1cnc(CSc2cnc(NC(=O)C3CCNCC3)s2)o1 [SNS-032] (first compound 0.02 µM, partner dose 0.01 µM), for which the cell count with MZ2-MEL was 92.7%; with MeWo it was 102%; in the assay on RPMI7951, 93.3%; in the assay on RVH-421, 98.5%; with SkMel28, 87.9%; in the assay on SkMel2 it was 92.2%. For the same molecule, the cell count in the assay on SkMel30 is 102%; with SkMel5, 85.7%; in the assay on UACC257, 70.9%; in the assay with UACC62, 78%.
Take `C[C@]1(O)C[C@@H](c2nc(-c3ccc4ccc(-c5ccccc5)nc4c3)c3c(N)nccn32)C1` + CCc1ccc(CCOc2ccc(CC3SC(=O)NC3=O)cc2)nc1 [pioglitazone] (first compound 0.4 µM, partner dose 2 µM): the cell count in the assay with MZ2-MEL was 96.5%; in the assay on MeWo, 90.2%; in the assay on RPMI7951, 114%; with RVH-421, 74.2%; with SkMel28, 96.4%; with SkMel2 it was 79.8%. In addition, the cell count in the assay with SkMel30 worked out at 88.1%; with SkMel5, 93.5%; with UACC257 it was 88.4%; in the assay with UACC62, 72.4%.
For the molecule `CCN(CC)CCNC(=O)c1c(C)[nH]c(/C=C2\C(=O)Nc3ccc(F)cc32)c1C` [sunitinib] + c1cc(-c2cnn3cc(-c4ccc(OCCN5CCCCC5)cc4)cnc23)ccn1 [Dorsomorphin] (first compound 0.4 µM, partner dose 0.4 µM), the cell count in the assay with MZ2-MEL was found to be 101%; in the assay with MeWo, 87.9%; in the assay with RPMI7951, 118%; with RVH-421, 132%; with SkMel28 it was 101%; in the assay on SkMel2, 118%. Moreover, the cell count with SkMel30 is 76.8%; in the assay on SkMel5, 97%; in the assay with UACC257, 81.4%; with UACC62 it was 85.9%.
On to `Cn1cnc2c(F)c(Nc3ccc(Br)cc3Cl)c(C(=O)NOCCO)cc21` [selumetinib] + NCC(=O)Nc1ccc(-n2nc(C(F)(F)F)cc2-c2ccc3c(ccc4ccccc43)c2)cc1 [OSU03012] (first compound 0.015 µM, partner dose 1 µM), for which the cell count in the assay with MZ2-MEL was 95.4%; with MeWo it was 57.3%; in the assay with RPMI7951 it was 116%; in the assay with RVH-421, 94%; in the assay with SkMel28, 85%; with SkMel2, 72.1%. For the same molecule, the cell count in the assay on SkMel30 came out at 52.6%; with SkMel5, 103%; in the assay with UACC257 it was 68.9%; in the assay with UACC62 it was 67.2%.
In the case of `Cn1cnc2c(F)c(Nc3ccc(Br)cc3Cl)c(C(=O)NOCCO)cc21` [selumetinib] + C=CCn1c(=O)c2cnc(Nc3ccc(N4CCN(C)CC4)cc3)nc2n1-c1cccc(C(C)(C)O)n1 [MK1775] (first compound 0.015 µM, partner dose 0.02 µM), the cell count with MZ2-MEL was found to be 76.6%; with MeWo, 85.8%; in the assay with RPMI7951, 130%; with RVH-421, 90.7%; in the assay on SkMel28, 73.7%; in the assay with SkMel2 it was 56.6%. The cell count was 72.8% with SkMel30, 105% in the assay on SkMel5, 78.8% in the assay with UACC257 and 72.9% in the assay with UACC62.
Regarding `CCN(CC)CCNC(=O)c1c(C)[nH]c(/C=C2\C(=O)Nc3ccc(F)cc32)c1C` [sunitinib] + NC(=O)Nc1cc(-c2cccc(F)c2)sc1C(=O)N[C@H]1CCCNC1 [AZD7762] (first compound 0.4 µM, partner dose 0.02 µM), the cell count in the assay on MZ2-MEL is 118%; with MeWo it was 80.7%; with RPMI7951 it was 91.3%; in the assay on RVH-421, 123%; in the assay on SkMel28 it was 89.1%; in the assay on SkMel2, 124%. The cell count in the assay with SkMel30 is 43.9%; in the assay on SkMel5, 97.5%; in the assay on UACC257, 93.8%; in the assay with UACC62, 97%.
With `C[C@]1(O)C[C@@H](c2nc(-c3ccc4ccc(-c5ccccc5)nc4c3)c3c(N)nccn32)C1` + NC(=O)Nc1cc(-c2cccc(F)c2)sc1C(=O)N[C@H]1CCCNC1 [AZD7762] (first compound 0.4 µM, partner dose 0.02 µM), the cell count was found to be 91.5% in the assay with MZ2-MEL; 97.3% in the assay on MeWo; 99.6% in the assay with RPMI7951; 124% with RVH-421; 86.7% in the assay with SkMel28; 101% with SkMel2. For the same molecule, the cell count in the assay with SkMel30 is 84.9%; in the assay on SkMel5 it was 76.1%; in the assay on UACC257 it was 87.5%; in the assay with UACC62 it was 92.6%.
For the molecule `COc1cc([C@@H]2c3cc4c(cc3[C@@H](O[C@@H]3O[C@@H]5CO[C@@H](C)O[C@H]5[C@H](O)[C@H]3O)[C@H]3COC(=O)[C@H]23)OCO4)cc(OC)c1O` [etoposide] + Cn1cncc1[C@@](N)(c1ccc(Cl)cc1)c1ccc2c(c1)c(-c1cccc(Cl)c1)cc(=O)n2C [tipifarnib] (first compound 0.02 µM, partner dose 0.01 µM), the cell count is 88.3% in the assay on MZ2-MEL; 92% in the assay on MeWo; 104% in the assay on RPMI7951; 52.3% in the assay on RVH-421; 91.4% in the assay with SkMel28; 80.7% in the assay on SkMel2. The cell count worked out at 85.7% with SkMel30, 96.8% in the assay on SkMel5, 71.3% with UACC257 and 78.8% in the assay with UACC62.
As to `Cn1cnc2c(F)c(Nc3ccc(Br)cc3Cl)c(C(=O)NOCCO)cc21` [selumetinib] + CC1(C)NC(=O)N(c2ccc([N+](=O)[O-])c(C(F)(F)F)c2)C1=O [nilutamide] (first compound 0.015 µM, partner dose 1 µM), the cell count in the assay with MZ2-MEL is 95%; in the assay on MeWo, 86.7%; with RPMI7951, 135%; with RVH-421, 85.3%; with SkMel28, 94.2%; with SkMel2 it was 82.4%. The cell count stood at 66.5% with SkMel30, 97.6% in the assay on SkMel5, 75.3% in the assay with UACC257 and 85.7% with UACC62.
For the molecule `C[C@]1(O)C[C@@H](c2nc(-c3ccc4ccc(-c5ccccc5)nc4c3)c3c(N)nccn32)C1` + CN(NC(=O)CC(=O)NN(C)C(=S)c1ccccc1)C(=S)c1ccccc1 [STA4783] (first compound 0.4 µM, partner dose 0.006 µM), the cell count in the assay on MZ2-MEL is 88.8%; in the assay with MeWo it was 87.4%; in the assay with RPMI7951, 123%; in the assay on RVH-421 it was 98.1%; in the assay on SkMel28, 103%; in the assay on SkMel2 it was 60.2%. The cell count in the assay with SkMel30 came to 96.4%; with SkMel5, 77.4%; in the assay on UACC257 it was 65.6%; in the assay with UACC62 it was 80.2%.
